Reference: PubChem BioAssay AID504332 (National Center for Advancing Translational Sciences (NCATS), 2011)
In all, about 350,000 compounds went through this assay and about 31,000 (8.9%) were called active. The inconclusive results got no clear call from the source; some entries with a clear call stand among them for comparison. The call rests on the fitted dose curve; in most records, active means well fitted inhibition curve with a large enough effect; inconclusive means small, poorly fitted or top-dose-only effect; inactive means no such curve, though single readings can be large or run the other way. Potencies of inconclusive entries are doubtful fits and often do not repeat.

What follows are molecules tested against Histone-lysine N-methyltransferase EHMT2 (Homo sapiens) (UniProt Q96KQ7) (assay: qHTS Assay for Inhibitors of Histone Lysine Methyltransferase G9a). Conditions: G9a H3K9 monomethylation, AlphaScreen, 2 h; activity, negative = inhibition: at 59 µM (top of the series) unless noted.
In short: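 Quantitative HTS format: methyltransferase activity on a biotin-tagged H3K9 peptide is measured by AlphaScreen, using a rabbit anti-monomethyl-H3K9 antibody with streptavidin donor and anti-IgG acceptor beads. Final levels are 20 nM enzyme, 500 nM peptide, 20 uM SAM; 2 h RT.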
Further: nearly all actives have a fitted effect of over 75% in size.
On the % scale 0 is the no-effect control and ±100 the full control effect; potency means the concentration at half of the fitted maximal effect; tags describe the fitted curve by direction and shape.

UniProt Q96KQ7, sequence (Q96KQ7 whole entry, looked up): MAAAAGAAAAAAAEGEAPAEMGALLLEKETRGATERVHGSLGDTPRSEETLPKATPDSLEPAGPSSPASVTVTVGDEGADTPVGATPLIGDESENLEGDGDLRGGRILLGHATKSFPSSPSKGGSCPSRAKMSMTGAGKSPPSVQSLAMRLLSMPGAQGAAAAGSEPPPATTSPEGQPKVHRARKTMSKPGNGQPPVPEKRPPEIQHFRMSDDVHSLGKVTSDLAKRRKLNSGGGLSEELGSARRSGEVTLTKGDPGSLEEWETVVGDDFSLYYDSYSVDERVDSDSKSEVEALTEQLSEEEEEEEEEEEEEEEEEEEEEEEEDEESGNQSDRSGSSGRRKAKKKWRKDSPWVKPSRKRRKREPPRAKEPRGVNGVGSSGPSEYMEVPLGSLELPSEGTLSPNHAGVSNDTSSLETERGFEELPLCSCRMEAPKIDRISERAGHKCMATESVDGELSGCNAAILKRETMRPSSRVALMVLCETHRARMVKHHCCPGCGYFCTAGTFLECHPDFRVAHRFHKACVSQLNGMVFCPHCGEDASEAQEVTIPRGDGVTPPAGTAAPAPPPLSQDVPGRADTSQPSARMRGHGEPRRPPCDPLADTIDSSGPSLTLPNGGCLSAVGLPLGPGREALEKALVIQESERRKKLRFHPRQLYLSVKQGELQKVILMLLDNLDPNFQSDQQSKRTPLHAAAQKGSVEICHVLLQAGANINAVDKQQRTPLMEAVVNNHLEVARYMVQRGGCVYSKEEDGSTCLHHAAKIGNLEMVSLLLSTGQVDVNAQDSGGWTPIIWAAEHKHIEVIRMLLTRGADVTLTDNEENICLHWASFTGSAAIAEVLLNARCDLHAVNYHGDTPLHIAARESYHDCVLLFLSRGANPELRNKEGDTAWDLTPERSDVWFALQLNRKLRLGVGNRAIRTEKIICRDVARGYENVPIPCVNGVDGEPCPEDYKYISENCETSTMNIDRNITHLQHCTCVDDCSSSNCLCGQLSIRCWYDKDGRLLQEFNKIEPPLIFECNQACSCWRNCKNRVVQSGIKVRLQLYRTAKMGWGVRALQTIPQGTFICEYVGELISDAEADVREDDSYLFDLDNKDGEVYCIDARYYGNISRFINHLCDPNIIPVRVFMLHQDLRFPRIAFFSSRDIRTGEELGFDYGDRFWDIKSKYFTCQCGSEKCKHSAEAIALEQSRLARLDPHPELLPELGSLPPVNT

SMILES	activity, negative = inhibition	Potency
O=C(Nc1ccc(OC(F)(F)F)cc1)NC1COc2ccccc2C1 (configuration not stated)	inactive: -26.3%	
O=C(c1ccc(OCc2cn3ccccc3n2)cc1)N1CCN(S(=O)(=O)c2ccccc2F)CC1		inconclusive: 50.1 µM [inhibitor, partial curve]
CCCCc1ccc(Nc2ncnc3c2cnn3-c2ccc(C)cc2)cc1		inconclusive: 39.8 µM [inhibitor, single point]
CC1CCCCN1C(=S)NC(=O)c1cc(Br)ccc1Cl (configuration not stated)		inconclusive: 35.5 µM [inhibitor, single point]
O=C(COc1ccccc1[N+](=O)[O-])N(Cc1ccccc1)c1ccccn1	inactive: 0.531% [at 102 µM]	
CCCCCCn1c(=O)[nH]c2nc3cc(N)ccc3nc2c1=O		active: 39.8 µM
Cc1ccc(S(=O)Cc2nc(-c3ccc(C(=O)NC(C)c4ccccc4)cc3)oc2C)cc1 (configuration not stated)		inconclusive: 3.98 µM [inhibitor, full curve, poor fit]
Cc1ccc(C(=O)Nc2nc(-c3ccccc3)c(-c3ccccc3)o2)cc1		inconclusive: 39.8 µM [inhibitor, single point]
COc1cccc(/C=N/NC(=O)c2cnccn2)c1O	inactive: 6.18% [at 102 µM]	
COc1ccc(NC(=O)c2cc3c(=O)n(Cc4ccco4)ccc3nc2C)c(OC)c1		inconclusive: 5.01 µM [inhibitor, single point]
CCOC(=O)C1=C(C)N(c2ccccc2)C(=O)/C1=C\c1ccco1		active: 39.8 µM
COc1ccc(/C=C2\CCCc3c2nc2ccc(C)cc2c3C(=O)O)cc1O		inconclusive: 56.2 µM [inhibitor, partial curve]
O=C(/C=C/c1ccc(Br)cc1)NC(=S)N1CCOCC1		active: 70.8 µM
COc1ccc2c(c1)OC[C@H]1[C@H]2N2C(=O)c3cc(OC)ccc3NC(=O)[C@@]2(C)[C@H]1c1ccccc1	inconclusive: -109% [inhibitor] [at 2.33 µM]	
CCN1C(=O)[C@H]2[C@@H](c3ccc(OC)cc3)N3C(=O)CN(CCOC)C(=O)[C@@]3(Cc3ccccc3)[C@H]2C1=O	inactive: 11.7% [at 102 µM]	
CCCc1cc(=O)n2[nH]c(-c3cc(OC)c(OC)c(OC)c3)nc2n1		active: 44.7 µM
COc1ccc(C(=O)COC(=O)C2CCN(c3ccc(C(F)(F)F)cn3)CC2)c(OC)c1	inactive: -33.1% [at 102 µM]	
Cc1nc(-c2ccccc2)sc1C1(C)CC(c2ccc([N+](=O)[O-])cc2)=NO1 (configuration not stated)		inconclusive: 10 µM [inhibitor, single point]
O=C(NCCc1ccccc1)c1ccccc1NC(=O)C1CCCO1 (configuration not stated)		inconclusive: 44.7 µM [inhibitor, partial curve]
OC(CNCC#Cc1ccccc1)c1ccccc1 (configuration not stated)		inconclusive: 79.4 µM [inhibitor, partial curve, poor fit]
O=C(NCc1cccc(Cl)c1)NCc1cccc(Cl)c1	inactive: 6.23%	
CCn1c(SCC(=O)Nc2ccc(N(C)C)cc2)nnc1-c1cccc(C)c1		active: 7.08 µM
O=C(CN1CC(c2ccccc2)CC1=O)Nc1ccc2c(c1)OCO2 (configuration not stated)		inconclusive: 89.1 µM [inhibitor, single point]
CCOc1ccc(CCNC(=O)C2Cc3ccccc3N2C(=O)CC)cc1OCC (configuration not stated)	inactive: 7.85% [at 12.7 µM]	

SMILES	activity, negative = inhibition	Potency
COc1ccc(S(=O)(=O)c2ccc(OC)c(OC)c2)cc1OC		inconclusive: 89.1 µM [inhibitor, single point]
CN(CC(=O)Nc1cccc(C#N)c1)Cc1ccc(Cl)cc1	inactive: 6.26% [at 102 µM]	
COC(=O)Cn1c(=O)c2c(nc3n2CCCN3Cc2ccccc2)n(C)c1=O		inconclusive: 89.1 µM [inhibitor, partial curve, poor fit]
CCOC(=O)NCc1ccc2[nH]c(C)cc2c1		inconclusive: 79.4 µM [inhibitor, single point]
CCN1CC(CN(C)Cc2nc(-c3ccc(OC)c4ccccc34)oc2C)CC1=O (configuration not stated)		inconclusive: 50.1 µM [inhibitor, partial curve]
N#C/C(=N\Nc1cccc([N+](=O)[O-])c1)C(=O)c1ccc(Br)cc1		active: 44.7 µM
O=C(NCC1CCCO1)C1CCCN1C(=O)Nc1ccccc1[N+](=O)[O-] (configuration not stated)		inconclusive: 6.31 µM [inhibitor, partial curve, poor fit]
CC(=O)NC/C(C)=N\Nc1ccc([N+](=O)[O-])cc1		inconclusive: 50.1 µM [inhibitor, partial curve]
CC1CC(C)(C)NC(=S)N1CC(=O)NCc1ccccc1Cl (configuration not stated)		inconclusive: 31.6 µM [inhibitor, single point]
NC(=O)Cn1cc(/C=N\NS(=O)(=O)c2ccc(Cl)cc2)c2ccccc21	inactive: 32.3% [at 102 µM]	
Clc1ccc(-c2nnc(CSc3nnc(-c4cccs4)n3Cc3ccccc3)o2)cc1		inconclusive: 89.1 µM [inhibitor, single point]
CC1(C)S[C@@H]2[C@H](NC(=O)Cc3ccccc3)C(=O)N2[C@@H]1C(=O)O	inactive: 24.9%	
O=C(O)c1ccc(NCc2ccncc2)cc1		inconclusive: 22.4 µM [inhibitor, partial curve, poor fit]
COc1ccc(-c2nc(CS(=O)(=O)CC(=O)NCCc3ccccc3)c(C)o2)cc1		inconclusive: 39.8 µM [inhibitor, single point]
Cc1c(Cl)cccc1N=C1SCCN1C(=O)CN1C(=O)NC2(CCCC2)C1=O	inactive: -37.3% [at 102 µM]	
O=S(=O)(c1cc(-c2nnc(-c3ccc(Br)cc3)o2)ccc1Br)N1CCCCCC1	inactive: 18.4%	
Cc1ccc(Cl)cc1NC(=O)/C(C#N)=C\c1cn(Cc2ccc(F)cc2)c2ccccc12	inactive: 13.7%	
CCN(CC)CCN(C(=O)c1c(F)cccc1F)c1nc2cc(C)cc(C)c2s1		active: 56.2 µM
O=C(CN1CCN(C(=O)CNC(=O)c2ccc3c(c2)OCO3)CC1)Nc1ccc(F)cc1	inactive: 33.4% [at 12.7 µM]	
C[N+](C)(C)CCCCCC[N+](C)(C)C		inactive
COc1cccc(Nc2nc(-c3sc(NC(=O)c4ccco4)nc3C)cs2)c1		active: 39.8 µM
O=C(O)C1Cc2ccccc2CN1S(=O)(=O)/C=C/c1ccccc1 (configuration not stated)		active: 14.1 µM
Cc1ccc(Nc2ccc(NCc3ccccc3)nn2)cc1C		inconclusive: 22.4 µM [inhibitor, single point]
COc1cc(NC(=S)NC2CC(C)(C)NC(C)(C)C2)c(OC)cc1Cl		active: 50.1 µM

SMILES	activity, negative = inhibition	Potency
Cn1c(=O)c([N+](=O)[O-])c(-n2ccnc2)c2ccccc21		inconclusive: 35.5 µM [inhibitor, partial curve, poor fit]
Cc1ccc(C(=O)N/N=C2\SCC(=O)N2c2cc(C)ccc2C)cc1	inactive: 19.3%	
COc1cc(OC)c(OC)cc1CN1CCN(S(=O)(=O)c2ccc(F)cc2)CC1		inconclusive: 2.51 µM [inhibitor, partial curve, poor fit]
Oc1cccc(NC(=S)N=Nc2c(O)[nH]c3ccccc23)c1		inconclusive: 50.1 µM [inhibitor, single point]
Cn1c(=O)oc2cc(S(=O)(=O)Nc3ccccc3)ccc21	inactive: -30% [at 102 µM]	
Cc1ccc(Cn2nnc3c(=O)n(CC(=O)NCC4CCCO4)cnc32)cc1 (configuration not stated)		inconclusive: 89.1 µM [inhibitor, partial curve, poor fit]
CN(C(=O)CCCN1C(=O)c2cccc3cccc(c23)C1=O)c1ccccc1		inconclusive: 100 µM [inhibitor, single point]
Cc1nnc(SC(C)C(=O)Nc2ccc3c(c2)OCCO3)s1 (configuration not stated)		inconclusive: 0.316 µM [inhibitor, full curve, poor fit]
Nc1cccnc1Sc1ccc([N+](=O)[O-])cn1		active: 1 µM
Cc1cccc(C)c1NC(=O)C1(N(Cc2ccco2)C(=O)CC2NC(=O)NC2=O)CCCC1 (configuration not stated)	inactive: 9.4% [at 102 µM]	
O=C1NC(NS(=O)(=O)c2ccc(Cl)cc2)(C(F)(F)F)C(=O)N1Cc1cccnc1 (configuration not stated)		inconclusive: 89.1 µM [inhibitor, single point]
COc1ccc(C)cc1S(=O)(=O)N1CCN(C)CC1c1ccccc1 (configuration not stated)		inconclusive: 0.501 µM [inhibitor, full curve, poor fit]
O=C(/C=C/c1ccc(Cl)cc1Cl)N1CCN(c2ccccc2[N+](=O)[O-])CC1		active: 39.8 µM
Cc1ccccc1OCC(=O)Nc1ccc(S(=O)(=O)N2CCOCC2)cc1	inactive: 2.97% [at 102 µM]	
CCn1cc(C(=O)NCCN(C)C)c(=O)c2cc(F)c(N3CCN(C)CC3)cc21		active: 50.1 µM
CC1(OC(=O)C2CCCC2)C(=O)C=C2C=C(c3ccsc3)N(CC3CC3)C=C2C1=O (configuration not stated)	inactive: 27.8% [at 12.7 µM]	
O=S(=O)(NC1CCSc2ccccc21)c1ccc(Cl)nc1 (configuration not stated)		inconclusive: 79.4 µM [inhibitor, partial curve, poor fit]
CN1C(=O)/C(=N/OC(=O)c2ccccc2Br)c2ccccc21		inconclusive: 28.2 µM [inhibitor, single point]
Cc1cc2oc(=O)cc(CSc3nnc(C)n3N)c2cc1C(C)C	inactive: -40.2% [at 102 µM]	
COc1ccccc1C(CNC(=O)CSc1ccc2ccccc2c1)N(C)C (configuration not stated)		inconclusive: 79.4 µM [inhibitor, single point]
Cn1ncc(N=Cc2ccccc2)c1C(N)=O	inactive: -45.6% [at 12.7 µM]	
Clc1cccc(NCc2nnc(SCc3ccc(Cl)cc3Cl)o2)c1	inactive: 53%	
Cc1cnc(CNC(=O)CC2C(=O)NCCN2Cc2cccc(F)c2F)cn1 (configuration not stated)		inconclusive: 39.8 µM [inhibitor, partial curve, poor fit]
CCOC1(OCC)C(c2ccc(Cl)cc2)C(C#N)(C#N)C1(OCC)OCC (configuration not stated)		inconclusive: 44.7 µM [inhibitor, partial curve]
